In paper PMC4336329 (PLoS ONE, 2015):
About 14,000 (4.5%) of roughly 310,000 compounds showed an effect of 50% or more. Effects have a minus sign here. The list shows a part of the results.

molecular target: human ether-à-go-go-related gene (hERG) potassium channel (human, UniProt Q12809); experiment: primary screen, population patch clamp on CHO cells stably expressing hERG
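Note: peak tail current of the secondary pulse compared with the same well before compound.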

Sequence of human ether-à-go-go-related gene (hERG) potassium channel (Q12809 whole entry, looked up): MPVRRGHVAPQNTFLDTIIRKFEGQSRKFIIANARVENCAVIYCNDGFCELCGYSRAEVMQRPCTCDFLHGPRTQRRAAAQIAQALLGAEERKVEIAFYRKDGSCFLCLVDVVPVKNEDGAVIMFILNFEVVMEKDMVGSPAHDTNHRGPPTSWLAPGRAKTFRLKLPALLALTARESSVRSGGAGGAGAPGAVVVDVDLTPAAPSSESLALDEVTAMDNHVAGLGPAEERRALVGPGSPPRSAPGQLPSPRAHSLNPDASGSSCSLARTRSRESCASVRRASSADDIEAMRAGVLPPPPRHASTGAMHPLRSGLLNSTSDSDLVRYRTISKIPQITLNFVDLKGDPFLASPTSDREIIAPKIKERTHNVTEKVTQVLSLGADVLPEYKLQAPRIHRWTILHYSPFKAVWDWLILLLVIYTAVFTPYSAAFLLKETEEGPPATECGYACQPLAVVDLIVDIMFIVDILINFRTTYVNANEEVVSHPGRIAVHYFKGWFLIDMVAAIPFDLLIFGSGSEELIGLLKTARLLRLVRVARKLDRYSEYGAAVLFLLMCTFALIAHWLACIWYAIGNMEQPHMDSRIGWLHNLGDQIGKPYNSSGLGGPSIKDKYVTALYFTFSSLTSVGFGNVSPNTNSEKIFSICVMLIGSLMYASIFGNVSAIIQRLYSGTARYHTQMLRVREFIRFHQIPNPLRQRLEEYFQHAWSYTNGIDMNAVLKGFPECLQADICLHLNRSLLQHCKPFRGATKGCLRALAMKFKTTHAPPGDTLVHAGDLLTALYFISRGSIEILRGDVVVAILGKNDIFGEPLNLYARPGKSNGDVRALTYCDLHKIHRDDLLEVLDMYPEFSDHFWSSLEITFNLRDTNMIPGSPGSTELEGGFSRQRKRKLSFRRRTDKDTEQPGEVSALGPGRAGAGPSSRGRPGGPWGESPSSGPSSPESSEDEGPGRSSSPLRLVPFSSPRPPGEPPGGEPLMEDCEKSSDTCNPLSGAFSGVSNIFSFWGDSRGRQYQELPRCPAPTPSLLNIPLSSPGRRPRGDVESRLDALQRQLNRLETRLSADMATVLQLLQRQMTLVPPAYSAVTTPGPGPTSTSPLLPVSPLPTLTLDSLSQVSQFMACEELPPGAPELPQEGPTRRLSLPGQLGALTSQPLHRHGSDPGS

Compared with CN(CCOc1ccccc1)C(=O)CCc1c[nH]c2ccccc12.Cl, O=C(c1ccccc1)c1cn(CC(=O)N2CCOCC2)c2ccccc12 is lower in “hERG current change (%, negative = inhibition) at 10uM” value: -0.585% for the first, -0.668% for the second.

Going from O=[N+]([O-])c1cnc(Nc2ccc(Cl)cn2)c([N+](=O)[O-])c1 to CCOc1cc(Br)c(COc2ccc(C)nc2[N+](=O)[O-])cc1OCC, the “hERG current change (%, negative = inhibition) at 10uM” value rises from 8.97% to 19.5%.

First: CCO[C@@H]1OC(C(N)=O)=C[C@H](c2ccc(C(F)(F)F)cc2)[C@H]1CCCO
Second: CCOC(=O)C(C)C1(O)c2ccccc2-c2ncccc21 (stereo not shown)
The “hERG current change (%, negative = inhibition) at 10uM” value of the first is higher: -2.64% for the first, -14.6% for the second.

First: CCOc1cc(/C=C2\CCC/C(=C\c3cc(Cl)c(O)c(OCC)c3)C2=O)cc(Cl)c1O
Second: CCOc1ccc(CCNC(=O)COC(=O)Cc2ccc(OC)c(OC)c2)cc1OCC
The “hERG current change (%, negative = inhibition) at 10uM” value of the first is higher: 11.6% for the first, 7.37% for the second.

Going from CCOc1ccc(S(=O)(=O)NCCC(=O)N2CCN(c3ncccn3)CC2)cc1 to COc1ccc(N2CCN(S(=O)(=O)c3c(C)nc4scc(C)n4c3=O)CC2)cc1, the “hERG current change (%, negative = inhibition) at 10uM” value rises from -8.57% to -0.624%.

Compared with C#CCOCCOCCOCCNc1nc(N2CCN(C(=O)Cn3cc(CCC[NH+]=C(N)N)nn3)CC2)nc(N2CCN(C(=O)[C@H](CCCC[NH3+])n3cc(CC(C)O)nn3)CC2)n1.[Cl-] (stereo partly shown), Cc1cc(=O)oc2cc(OCC(=O)N3CCN(C(=O)C4COc5ccccc5O4)CC3)ccc12 (stereo not shown) is lower in “hERG current change (%, negative = inhibition) at 10uM” value: 16.4% for the first, -53.6% for the second.

Going from COC(=O)c1ccccc1N=Cc1c(O)[nH]c(=O)[nH]c1=O to COc1cccc(N=Nc2c(O)[nH]c(=S)[nH]c2=O)c1, the “hERG current change (%, negative = inhibition) at 10uM” value rises from 3.19% to 5.38%.

Going from O=C(COC(=O)c1ccc(S(=O)(=O)Nc2ccccc2)cc1)NCC1CCCO1 (stereo not shown) to O=C(O)c1ccccc1NS(=O)(=O)c1ccc2ccccc2c1, the “hERG current change (%, negative = inhibition) at 10uM” value rises from 1.33% to 22.3%.

Compared with CC(C)(C)N1CSC(=S)N(Cc2ccccc2)C1, CCOC(=O)C(Cc1ccccc1)C(=O)Nc1nccs1 (stereo not shown) is lower in “hERG current change (%, negative = inhibition) at 10uM” value: 13.8% for the first, 11.3% for the second.

Going from CCOc1ccc2nc(SCC(=O)NCc3ccc4c(c3)OCO4)[nH]c2c1 to Cn1c(=O)cc(SCC(=O)Nc2ccc3c(c2)OCO3)c2ccccc21, the “hERG current change (%, negative = inhibition) at 10uM” value rises from -24.2% to 9.14%.

First: Cc1cccc(C(C)C)c1NC(=O)COC(=O)COc1ccc2c(C)cc(=O)oc2c1
Second: Cc1ccccc1NC(=O)CC(C)S(=O)(=O)c1ccc2c(c1)NC(=O)CO2 (stereo not shown)
The “hERG current change (%, negative = inhibition) at 10uM” value of the first is higher: 5.19% for the first, -6.12% for the second.

Compared with Cc1ccc(C(=O)NC(C)c2ccccc2)cc1S(=O)(=O)N1CCOCC1 (stereo not shown), COc1ccc(C(=S)N2CCOCC2)cc1OC(=O)c1ccccc1Cl is higher in “hERG current change (%, negative = inhibition) at 10uM” value: -1.39% for the first, 5.98% for the second.

Compared with Cn1cncc1C#Cc1ccc2cc(C(C)(C)O)oc(=O)c2c1, Cc1cccc(-n2c(C)nc3ccccc3c2=O)n1 is lower in “hERG current change (%, negative = inhibition) at 10uM” value: 2.61% for the first, -4.26% for the second.

Going from CC1CCCN(c2c3c(nc4ccccc24)CCCC3)C1 (stereo not shown) to O=C1CCC(=O)N1c1ccc(CSc2nc3ccccc3[nH]2)cc1, the “hERG current change (%, negative = inhibition) at 10uM” value rises from -65.2% to 7.12%.

First: O=C(NCCCn1ccnc1)C(=O)NC1CCCCC1
Second: CC(=O)c1cccc(N(C(=O)c2ccco2)C(C(=O)NC2CCCC2)c2ccncc2)c1 (stereo not shown)
The “hERG current change (%, negative = inhibition) at 10uM” value of the first is higher: 10.7% for the first, 5.79% for the second.

Going from COc1ccc(C(=O)NC2CC(C)(C)Cc3c2cnn3-c2ccccc2)c(OC)c1 (stereo not shown) to COc1ccc(C(=O)NNC2=CC(=O)CC(C)(C)C2)cc1OC, the “hERG current change (%, negative = inhibition) at 10uM” value rises from -2.5% to 14.6%.

Compared with O=C(CCN1C(=O)c2ccccc2C1=O)C1=NN[C@@H]2C(=O)N(c3ccc4c(c3)OCCO4)C(=O)[C@H]12, COc1ccccc1N(CN1CCCC1=O)C(=O)c1c(F)cccc1Cl is lower in “hERG current change (%, negative = inhibition) at 10uM” value: 5.64% for the first, 3.97% for the second.

Compared with O=C(O)/C=C/C(=O)NCCc1cccc(Cl)c1, CC(=O)NS(=O)(=O)c1ccc(NC(=O)/C=C/c2ccc(C)o2)cc1 is higher in “hERG current change (%, negative = inhibition) at 10uM” value: 0.0402% for the first, 9.8% for the second.

Compared with Cc1ccc(O)c(C(=O)c2cc(C#N)c(=O)n(C(C)c3ccccc3)c2)c1 (stereo not shown), CC(Oc1ccccc1F)C(=O)Nc1ccc2ccccc2c1 (stereo not shown) is higher in “hERG current change (%, negative = inhibition) at 10uM” value: -9.78% for the first, 8.86% for the second.

Going from CCOc1ccc2[nH]cc(S(=O)(=O)c3ccc(C)cc3)c(=O)c2c1 to CC(=O)c1ccc(N2Cc3ccccc3C2)cc1, the “hERG current change (%, negative = inhibition) at 10uM” value falls from -1.08% to -2.58%.

First: CC(C)CC(=O)N(Cc1ccc(F)cc1)C1CCS(=O)(=O)C1 (stereo not shown)
Second: Cc1ccc(SCCOCCN2CCOCC2)cc1.Cl
The “hERG current change (%, negative = inhibition) at 10uM” value of the first is higher: 9.79% for the first, -1.55% for the second.

O=C(O)CC1SC(=O)NC1=O (stereo not shown) was tested, and the “hERG current change (%, negative = inhibition) at 10uM” value was 4.76%.
